# Read-outs that look alike come from different tables or passages of the source.
# How the values were obtained:
# σ-2 receptor = σ-2 receptor (Rattus norvegicus (Rat), UniProt Q5U3Y7); test: σ-2 receptor binding in rat brain homogenates ([3H]DTG plus (+)-pentazocine); conditions: compound listing tables
# σ-1 receptor = σ-1 receptor (Rattus norvegicus (Rat), UniProt Q9R0C9); test: σ-1 receptor binding in rat brain homogenates ([3H](+)-pentazocine)
# [1] = read-out: Ki (nM) σ1, compound listing tables
# [2] = read-out: Ki (nm) σ1, compound listing tables
# Sequence of UniProt Q9R0C9 (Q9R0C9 whole entry): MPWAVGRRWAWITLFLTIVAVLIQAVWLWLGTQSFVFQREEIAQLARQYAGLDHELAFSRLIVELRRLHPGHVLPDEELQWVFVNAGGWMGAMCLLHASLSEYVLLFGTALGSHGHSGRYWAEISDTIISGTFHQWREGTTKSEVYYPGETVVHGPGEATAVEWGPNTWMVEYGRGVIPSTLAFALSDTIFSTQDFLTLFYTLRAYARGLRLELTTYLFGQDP
# Sequence of UniProt Q5U3Y7 (Q5U3Y7 whole entry): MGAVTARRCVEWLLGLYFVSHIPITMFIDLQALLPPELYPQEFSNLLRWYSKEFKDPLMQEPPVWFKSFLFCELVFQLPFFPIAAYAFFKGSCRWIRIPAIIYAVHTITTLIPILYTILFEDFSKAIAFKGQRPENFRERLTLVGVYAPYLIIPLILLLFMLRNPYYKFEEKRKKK
structure (smiles),measurement,setting,value
Cn1c(=O)n(CCCCN2CCN(c3ccc(F)cc3)CC2)c2ccccc21 [CM 397],Ki,σ-2 receptor; read-out: Ki (nM) σ2,0.46 ± 0.03 nM
CC(=O)c1ccc2c(c1)oc(=O)n2CCCCN1CC=C(c2ccc(F)cc2)CC1 [CM 401],Ki,σ-2 receptor; read-out: Ki (nM) σ2,0.66 ± 0.08 nM
same,Ki,σ-1 receptor; [1],2.89 ± 0.23 nM
CC(=O)c1ccc2c(c1)oc(=O)n2CCCCN1CCN(c2ccc(F)cc2[N+](=O)[O-])CC1 [CM 592],Ki,σ-2 receptor; read-out: Ki (nM) σ2,6.3 ± 0.39 nM
Cn1c(=O)n(CCCCN2CCN(c3ccc(F)cc3N)CC2)c2ccccc21 [CM 599],Ki,σ-2 receptor; read-out: Ki (nM) σ2,3.59 ± 0.12 nM
CC(=O)c1ccc2c(c1)oc(=O)n2CCCC(C)N1CCN(c2ccc(F)cc2)CC1 (stereo not shown) [CM 600],Ki,σ-2 receptor; read-out: Ki (nM) σ2,2.15 ± 0.09 nM
same,Ki,σ-1 receptor; [1],27.1 ± 2.32 nM
Cn1c(=O)n(CCCCN2CCN(c3ccc(F)cc3)CC2)c2cc([N+](=O)[O-])ccc21 [CM 608],Ki,σ-2 receptor; read-out: Ki (nM) σ2,4.72 ± 0.42 nM
Cn1c(=O)n(CCCCN2CCN(c3ccc(F)cc3)CC2)c2cc(N)ccc21 [CM 609],Ki,σ-2 receptor; read-out: Ki (nM) σ2,26.6 ± 2.74 nM
Cn1c(=O)n(CCCCN2CCN(c3ccc(F)cc3)CC2)c2cc(N=C=S)ccc21 [CM 617],Ki,σ-2 receptor; read-out: Ki (nM) σ2,30.1 ± 3.42 nM
CC(=O)c1ccc(NCCCCN2CCN(c3ccc(F)cc3)CC2)c(O)c1 [CM 623],Ki,σ-2 receptor; read-out: Ki (nM) σ2,44.1 ± 3.4 nM
O=c1oc2ccccc2n1CCCCN1CCN(c2ccc(F)cc2F)CC1 [CM 624],Ki,σ-2 receptor; read-out: Ki (nM) σ2,1.96 ± 0.11 nM
CC(=O)c1ccc2c(c1)oc(=S)n2CCCCN1CCN(c2ccc(F)cc2)CC1 [CM 625],Ki,σ-2 receptor; read-out: Ki (nM) σ2,1.88 ± 0.13 nM
CC(=O)c1ccc2c(c1)OCC(=O)N2CCCCN1CCN(c2ccc(F)cc2)CC1 [CM 627],Ki,σ-2 receptor; read-out: Ki (nM) σ2,6.34 ± 0.17 nM
CC(=O)c1ccc2c(c1)oc(=O)n2CCCCN1CCCN(c2ccc(F)cc2)CC1 [CM 673],Ki,σ-2 receptor; read-out: Ki (nM) σ2,50.6 ± 4.32 nM
same,Ki,σ-1 receptor; [1],104 ± 8.06 nM
O=c1[nH]c2ccccc2n1CCCCN1CCN(c2ccc(F)cc2)CC1 [CM 728],Ki,σ-2 receptor; read-out: Ki (nM) σ2,29.6 ± 1.51 nM
same,Ki,σ-1 receptor; [1],186 ± 11.8 nM
CCC(=O)c1ccc2c(c1)sc(=O)n2CCN1CCN(C2CCCCC2)CC1 [SC-5],Ki,σ-2 receptor; read-out: Ki (nm) σ2,3.73 ± 0.43 nM
CCC(=O)c1ccc2c(c1)oc(=O)n2CCN1CCN(C2CCCCC2)CC1 [SC-10],Ki,σ-2 receptor; read-out: Ki (nm) σ2,4.85 ± 0.31 nM
CCCc1ccc2c(c1)oc(=O)n2CCN1CCN(C2CCCCC2)CC1 [SC-12],Ki,σ-2 receptor; read-out: Ki (nm) σ2,4.02 ± 0.23 nM
O=c1oc2ccccc2n1CCCCCCN1CCN(C2CCCCC2)CC1 [SN-48],Ki,σ-1 receptor; [1],4.6 nM
same,Ki,"σ-1 receptor; read-out: σ-1 (Ki), rat brain homogenates",4.6 ± 1.08 nM
CCCCCCCc1ccc2c(c1)sc(=O)n2CCCCN1CCN(C2CCCCC2)CC1 [SN-55],Ki,σ-2 receptor; read-out: Ki (nM) σ2,31.4 nM
same,Ki,σ-1 receptor; [1],34.1 nM
CCCCCCC(=O)c1ccc2c(c1)sc(=O)n2CCCCN1CCN(C2CCCCC2)CC1 [SN-57],Ki,σ-2 receptor; read-out: Ki (nM) σ2,29.3 nM
same,Ki,σ-1 receptor; [1],43.8 nM
O=c1oc2ccccc2n1CCCCN1CCCCC1 [SN-60],Ki,σ-2 receptor; read-out: Ki (nM) σ2,213 nM
CCC(=O)c1ccc2oc(=O)n(CCN3CCCCCC3)c2c1 [SN-71],Ki,σ-2 receptor; read-out: Ki (nM) σ2,2340 nM
O=C(c1ccccc1)c1ccc2c(c1)oc(=O)n2CCN1CCCCCC1 [SN-78],Ki,σ-2 receptor; read-out: Ki (nM) σ2,860 nM
same,Ki,σ-1 receptor; [1],88.3 nM
Cl.Cl.O=c1sc2ccccc2n1CCCN1CCN(C2CCCCC2)CC1 [SN-99],Ki,σ-2 receptor; read-out: Ki (nM) σ2,2.44 nM
Cl.Cl.O=c1sc2ccccc2n1CCCCCCN1CCN(C2CCCCC2)CC1 [SN-102],Ki,σ-1 receptor; [1],6.55 nM
Nc1ccc2c(c1)oc(=O)n2CCCCN1CCN(c2ccc(F)cc2)CC1 [SN-228],Ki,σ-1 receptor; [2],> 10000 nM
CC(=O)Nc1ccc2c(c1)oc(=O)n2CCCCN1CCN(c2ccc(F)cc2)CC1 [SN-248],Ki,σ-2 receptor; read-out: Ki (nm) σ2,48.1 ± 5.68 nM
same,Ki,σ-1 receptor; [2],88.4 ± 12.7 nM
CC(O)c1ccc2c(c1)oc(=O)n2CCCCN1CCN(c2ccc(F)cc2)CC1 (stereo not shown) [SN-249],Ki,σ-2 receptor; read-out: Ki (nm) σ2,8.68 ± 0.57 nM
O=c1oc2ccccc2n1CCCCN1CCN(c2ccc(C(F)(F)F)cc2)CC1 [SN-250],Ki,σ-2 receptor; read-out: Ki (nm) σ2,98.8 ± 1.08 nM
same,Ki,σ-1 receptor; [2],87.6 ± 8.77 nM
O=c1oc2ccccc2n1CCCCN1CCN(c2ccccc2)CC1 [SN-251],Ki,σ-2 receptor; read-out: Ki (nm) σ2,11.4 ± 1.15 nM
same,Ki,σ-1 receptor; [2],18.4 ± 1.46 nM
Cc1ccc(N2CCN(CCCCn3c(=O)oc4ccccc43)CC2)cc1 [SN-252],Ki,σ-1 receptor; [2],213 ± 22.2 nM
CC(F)c1ccc2c(c1)oc(=O)n2CCCCN1CCN(c2ccc(F)cc2)CC1 (stereo not shown) [SN-253],Ki,σ-2 receptor; read-out: Ki (nm) σ2,6.12 ± 0.37 nM

# Reference: patent US9604926B2 (THE UNIVERSITY OF MISSISSIPPI, priority 2007, dated 2017)
